Some of the results follow.
Legend:
Experiment in all cases: glycan array binding signal (z-score within array); higher = stronger binding
Conditions in all cases: glycan notation: IUPAC condensed, linker removed
[1] = target: GalNAc(b1-4)GlcNAc(b1-2)Man
Method in brief: (§1)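 Arrays were curated from the Consortium for Functional Glycomics database, 3228 in total, and kept only where the protein sequence was available. Binding is expressed as a within-array Z-score. This score was averaged across arrays of the same protein sequence at different concentrations or buffers and across linkers, and negative values can be read as non-binding.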

[2] = target: GalNAc(b1-4)GlcNAc(b1-2)Man(a1-3)[GalNAc(b1-4)GlcNAc(b1-2)Man(a1-6)]Man(b1-4)GlcNAc(b1-4)GlcNAc
Method in brief: as §1

[3] = target: GalNAc(b1-4)GlcNAc(b1-3)GalNAc(b1-4)GlcNAc
Method in brief: as §1

GalNAc(b1-4)GlcNAc6S = target: GalNAc(b1-4)GlcNAc6S
Method in brief: as §1

GalNAc(b1-6)GalNAc = target: GalNAc(b1-6)GalNAc
Method in brief: as §1

GalNAc3S(b1-4)GlcNAc = target: GalNAc3S(b1-4)GlcNAc
Method in brief: as §1

GalNAc3S(b1-4)GlcNAc3S = target: GalNAc3S(b1-4)GlcNAc3S
Method in brief: as §1

[4] = target: GalNAc3S(b1-4)[Fuc(a1-3)]GlcNAc
Method in brief: as §1

GalNAc4S6S(b1-4)GlcNAc = target: GalNAc4S6S(b1-4)GlcNAc
Method in brief: as §1

GalNAc6S(b1-4)GlcNAc = target: GalNAc6S(b1-4)GlcNAc
Method in brief: as §1

Glc(a1-4)Glc = target: Glc(a1-4)Glc
Method in brief: as §1

[5] = target: Glc(a1-4)Glc(a1-4)Glc(a1-4)Glc
Method in brief: as §1

Glc(a1-6)Glc(a1-6)Glc = target: Glc(a1-6)Glc(a1-6)Glc
Method in brief: as §1

[6] = target: Glc(a1-6)Glc(a1-6)Glc(a1-6)Glc
Method in brief: as §1

Glc(b1-4)Glc = target: Glc(b1-4)Glc
Method in brief: as §1

Glc(b1-6)Glc = target: Glc(b1-6)Glc
Method in brief: as §1

GlcA(b1-3)Gal = target: GlcA(b1-3)Gal
Method in brief: as §1

GlcA(b1-3)GlcNAc = target: GlcA(b1-3)GlcNAc
Method in brief: as §1

GlcA(b1-6)Gal = target: GlcA(b1-6)Gal
Method in brief: as §1

[7] = target: GlcA3S(b1-3)Gal(b1-4)GlcNAc(b1-2)Man
Method in brief: as §1

[8] = target: GlcA3S(b1-3)Gal(b1-4)GlcNAc(b1-3)Gal(b1-4)Glc
Method in brief: as §1

[9] = target: GlcNAc(a1-3)Gal(b1-4)GlcNAc
Method in brief: as §1

[10] = target: GlcNAc(a1-4)Gal(b1-3)GlcNAc
Method in brief: as §1

[11] = target: GlcNAc(a1-4)Gal(b1-4)GalNAc
Method in brief: as §1

[12] = target: GlcNAc(a1-4)Gal(b1-4)GlcNAc
Method in brief: as §1

[13] = target: GlcNAc(a1-4)Gal(b1-4)GlcNAc(b1-3)Gal(b1-4)Glc
Method in brief: as §1

[14] = target: GlcNAc(a1-4)Gal(b1-4)GlcNAc(b1-3)Gal(b1-4)GlcNAc
Method in brief: as §1

[15] = target: GlcNAc(a1-4)Gal(b1-4)GlcNAc(b1-3)Gal(b1-4)GlcNAc(b1-3)Gal(b1-4)GlcNAc
Method in brief: as §1

[16] = target: GlcNAc(a1-4)Gal(b1-4)GlcNAc(b1-3)Gal(b1-4)[Fuc(a1-3)]GlcNAc(b1-3)Gal(b1-4)[Fuc(a1-3)]GlcNAc
Method in brief: as §1

[17] = target: GlcNAc(a1-6)Gal(b1-4)GlcNAc
Method in brief: as §1

[18] = target: GlcNAc(b1-2)Gal(b1-3)GalNAc
Method in brief: as §1

[19] = target: GlcNAc(b1-2)Man(a1-3)[GlcNAc(b1-2)Man(a1-6)]Man(b1-4)GlcNAc(b1-4)GlcNAc
Method in brief: as §1

[20] = target: GlcNAc(b1-2)Man(a1-3)[GlcNAc(b1-2)Man(a1-6)]Man(b1-4)GlcNAc(b1-4)[Fuc(a1-6)]GlcNAc
Method in brief: as §1

[21] = target: GlcNAc(b1-2)Man(a1-3)[GlcNAc(b1-4)][GlcNAc(b1-2)Man(a1-6)]Man(b1-4)GlcNAc(b1-4)GlcNAc
Method in brief: as §1

[22] = target: GlcNAc(b1-2)Man(a1-3)[GlcNAc(b1-4)][GlcNAc(b1-2)Man(a1-6)]Man(b1-4)GlcNAc(b1-4)[Fuc(a1-6)]GlcNAc
Method in brief: as §1

[23] = target: GlcNAc(b1-2)[GlcNAc(b1-4)]Man(a1-3)[GlcNAc(b1-2)Man(a1-6)]Man(b1-4)GlcNAc(b1-4)GlcNAc
Method in brief: as §1

[24] = target: GlcNAc(b1-2)[GlcNAc(b1-4)]Man(a1-3)[GlcNAc(b1-4)][GlcNAc(b1-2)Man(a1-6)]Man(b1-4)GlcNAc(b1-4)GlcNAc
Method in brief: as §1

B1: PX9937B-bvu-524-33-524 (Bacteroides vulgatus) (protein)
chain: GTAYWKNPDQFTAFNTGLHALLREKSYNFFLLGEPRADIYGDNPIGGEASQGMERLPFNTINKENVGISNYGDMYKIINQINQMIAKTTETTILTEATQNYYLGEAYGMRAYLYFHLLRSWGDVVLYLDYTEGQNLDLSNITKGVSPATEVMEQIKKDIQASENAFGSDYSFKLGRHFWSAAATQMLKGEAYLWSGRQMNGGNSDYTIAKNAFENVKKADVGLVTSSFKDIFSFENKKNKEMIFTIHNGKDEYEMWGGYYRMRLIPAQDKMVKIYCDENGNSFVGTPDAQLNGLTQLQVRREFYFKGFRNNDTRWTTSLKAVYKKDAQGVVSYFGPITYKFQGTMLEGGSTRSFLDDFPIYRYADCLLQLAMAKVLLGEDPTEEINAVRERAYGSKYFNEHKAEIAYPNDNDPEFYTDNKWMKPDNAGALEAILKERLREFMFEGKRWYDIRLLGWDYVHQYSSAEQSRLLWPIDAGTLTNNSALKQTPGYE
For B1, the “glycan array binding signal (z-score)” value [1] was -0.127, the “glycan array binding signal (z-score)” value [2] was -0.228 and the “glycan array binding signal (z-score)” value [3] was -0.144. The “glycan array binding signal (z-score)” value (GalNAc(b1-4)GlcNAc6S) was -0.323, the “glycan array binding signal (z-score)” value (GalNAc(b1-6)GalNAc) was -0.488 and the “glycan array binding signal (z-score)” value (GalNAc3S(b1-4)GlcNAc) was -0.324. The “glycan array binding signal (z-score)” value (GalNAc3S(b1-4)GlcNAc3S) was -0.255, the “glycan array binding signal (z-score)” value [4] was -0.225 and the “glycan array binding signal (z-score)” value (GalNAc4S6S(b1-4)GlcNAc) was -0.239. For the same binder, the “glycan array binding signal (z-score)” value (GalNAc6S(b1-4)GlcNAc) was -0.358, the “glycan array binding signal (z-score)” value (Glc(a1-4)Glc) was -0.336 and the “glycan array binding signal (z-score)” value [5] was -0.382. For the same binder, the “glycan array binding signal (z-score)” value (Glc(a1-6)Glc(a1-6)Glc) was -0.007, the “glycan array binding signal (z-score)” value [6] was -0.254 and the “glycan array binding signal (z-score)” value (Glc(b1-4)Glc) was 0.148. The “glycan array binding signal (z-score)” value (Glc(b1-6)Glc) was 0.203, the “glycan array binding signal (z-score)” value (GlcA(b1-3)Gal) was 0.249 and the “glycan array binding signal (z-score)” value (GlcA(b1-3)GlcNAc) was -0.242. For the same binder, the “glycan array binding signal (z-score)” value (GlcA(b1-6)Gal) was -0.249, the “glycan array binding signal (z-score)” value [7] was -0.269 and the “glycan array binding signal (z-score)” value [8] was -0.399. The “glycan array binding signal (z-score)” value [9] was -0.395, the “glycan array binding signal (z-score)” value [10] was -0.258 and the “glycan array binding signal (z-score)” value [11] was -0.453. For the same binder, the “glycan array binding signal (z-score)” value [12] was -0.158, the “glycan array binding signal (z-score)” value [13] was -0.179 and the “glycan array binding signal (z-score)” value [14] was -0.254. For the same binder, the “glycan array binding signal (z-score)” value [15] was -0.272, the “glycan array binding signal (z-score)” value [16] was 0.453 and the “glycan array binding signal (z-score)” value [17] was -0.343. The “glycan array binding signal (z-score)” value [18] was -0.133, the “glycan array binding signal (z-score)” value [19] was -0.297 and the “glycan array binding signal (z-score)” value [20] was -0.373. For the same binder, the “glycan array binding signal (z-score)” value [21] was -0.477, the “glycan array binding signal (z-score)” value [22] was -0.1 and the “glycan array binding signal (z-score)” value [23] was -0.328. The “glycan array binding signal (z-score)” value [24] was -0.346.

Source: the supplement of paper PMC8728848
